Laboratory results taken from patent US5663148A, “Anaphylatoxin receptor ligands containing lipophilic residues” (Abbott Laboratories, priority 1994, dated 1997).
At least one peptide structure holds a part that was inferred or is arguable (an end, a ring closure or a residue). At least one structure is not confirmed: it was looked up by name or label, or the drawing left a doubt. Where a SMILES comes first, the peptide text is derived from it. [ ]: non-standard residue; d: D form. The star is where a group is joined. ξ: configuration not given here. d(hhPhe) = N[C@H](CCCc1ccccc1)C(=O)O; Butanoyl(4-Ph) = O=C(CCCc1ccccc1)*; d(hPhe) = N[C@H](CCc1ccccc1)C(=O)O; Cha = N[C@@H](CC1CCCCC1)C(=O)O; ξhhPhe = NC(CCCc1ccccc1)C(=O)O; Aoc = NCCCCCCCC(=O)O

Molecular target: T1, C5a receptor (Homo sapiens, UniProt P21730)
T1 construct: from tissue; host or cells: polymorphonuclear leukocyte (PMNL) membrane fragments
T1 sequence (P21730 1-350): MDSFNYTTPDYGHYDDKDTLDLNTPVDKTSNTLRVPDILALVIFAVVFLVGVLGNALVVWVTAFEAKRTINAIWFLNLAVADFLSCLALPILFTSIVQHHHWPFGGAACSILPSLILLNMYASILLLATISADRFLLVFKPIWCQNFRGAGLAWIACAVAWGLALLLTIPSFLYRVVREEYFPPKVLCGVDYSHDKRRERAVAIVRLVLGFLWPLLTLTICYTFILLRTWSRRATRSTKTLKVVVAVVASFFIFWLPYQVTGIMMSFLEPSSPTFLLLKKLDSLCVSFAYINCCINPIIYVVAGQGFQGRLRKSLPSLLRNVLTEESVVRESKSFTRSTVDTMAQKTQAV
Test: Anaphylatoxin (C5a) receptor binding Ki determination, 125I-C5a on PMNL membrane fragments
Details: inhibition of 0.03-1 nM 125I-C5a binding to purified PMNL membrane fragments, sixty minutes at ambient temperature; apparent Ki calculated from IC50; read-out: Ki (In vitro C5a Receptor Binding Potency)
Protocol: The membrane-bound radiolabeled C5a was separated from the free radiolabeled C5a by filtration, and the recovered gamma radioactivity was measured. […] Free and membrane-bound ligand were separated by filtration.

Going from `CC(C)C[C@H](NC(=O)CNC(=O)[C@H](CC1CCCCC1)NC(=O)CCCc1ccccc1)C(=O)N[C@H](CCCc1ccccc1)C(=O)N[C@@H](CCCNC(=N)N)C(=O)O` [Example 51, N-(4-Phenylbutyryl)-{(2S)-2-Amino-3-cyclohexylpropanoyl}-Glycyl-Leucyl-{(R)-2-Amino-5-phenylpentanoyl}-Arginyl-OH] ({Butanoyl(4-Ph)}-[Cha]GL[d(hhPhe)]R-OH) to `CC(C)C[C@H](NC(=O)CNC(=O)[C@H](CC1CCCCC1)NC(=O)CCCCCCCN)C(=O)NC(CCCc1ccccc1)C(=O)N[C@@H](CCCNC(=N)N)C(=O)O` (mixture of isomers) [Example 83, N-(8-Aminocaproyl)-{(2S)-2-Amino-3-cyclohexylpropanoyl}-Glycyl-Leucyl-{(R/S)-2-Amino-5-phenylpentanoyl}-Arginyl-OH] (H-[Aoc][Cha]GL[ξhhPhe]R-OH), the Ki rises from 0.14 µM to 0.42 µM (3-fold).

Going from `CC(C)C[C@H](NC(=O)CCCCCN)C(=O)NCC(=O)N[C@@H](CC(C)C)C(=O)NC(CCCc1ccccc1)C(=O)N[C@@H](CCCNC(=N)N)C(=O)O` (single isomer, unassigned) [Example 88, N-(6-Aminohexanoyl)-Leucyl-Glycyl-Leucyl-{(R/S)-2-Amino-5-phenylpentanoyl}-Arginyl-OH] to `CC(C)C[C@H](NC(=O)CNC(=O)[C@H](CC1CCCCC1)N(C)C(=O)CCCCCN)C(=O)NC(CCCc1ccccc1)C(=O)N[C@@H](CCCNC(=N)N)C(=O)O` (single isomer, unassigned) [Example 14], the Ki falls from 26.5 µM to 1.38 µM (19-fold).

Compared with `CC(C)C[C@H](NC(=O)CNC(=O)[C@H](CC1CCCCC1)NC(=O)C1CCC(CN)CC1)C(=O)NC(CCCc1ccccc1)C(=O)N[C@@H](CCCNC(=N)N)C(=O)O` (single isomer, unassigned) [Example 18], `CC(C)C[C@H](NC(=O)[C@H](C)NC(=O)[C@H](CC1CCCCC1)NC(=O)CCCCCN)C(=O)NC(CCCc1ccccc1)C(=O)N[C@@H](CCCNC(=N)N)C(=O)O` (single isomer, unassigned) [Example 136] is 2.7-fold lower in Ki: 19.6 µM for the first, 7.2 µM for the second.

First: CC(C)C[C@H](NC(=O)CCCCCN)C(=O)NCC(=O)N[C@@H](CC(C)C)C(=O)NC(CCCc1ccccc1)C(=O)N[C@@H](CCCNC(=N)N)C(=O)O (single isomer, unassigned) [Example 89, N-(6-Aminohexanoyl)-Leucyl-Glycyl-Leucyl-{(R/S)-2-Amino-5-phenylpentanoyl}-Arginyl-OH]
Second: CC(C)C[C@H](NC(=O)CNC(=O)[C@H](Cc1ccccc1)N(C)C(=O)CCCCCN)C(=O)NC(CCCc1ccccc1)C(=O)N[C@@H](CCCNC(=N)N)C(=O)O (single isomer, unassigned) [Example 26, N-(6-Aminohexanoyl)-Phenylalanyl(N-methyl)-Glycyl-Leucyl-{(R/S)-2-Amino-5-phenylpentanoyl}-Arginyl-OH]
The Ki of the first is 16-fold higher: 6.4 µM for the first, 0.4 µM for the second.

Compared with `CC(C)C[C@H](NC(=O)CNC(=O)[C@H](CC1CCCCC1)NC(=O)C1CCC(CN)CC1)C(=O)NC(CCCc1ccccc1)C(=O)N[C@@H](CCCNC(=N)N)C(=O)O` (single isomer, unassigned) [Example 19], `CC(C)C[C@H](NC(=O)CNC(=O)[C@H](CC1CCCCC1)N(C)C(=O)CCCCCN)C(=O)NC(CCCc1ccccc1)C(=O)N[C@@H](CCCNC(=N)N)C(=O)O` (single isomer, unassigned) [Example 13] is 6.9-fold higher in Ki: 3.04 µM for the first, 21.1 µM for the second. The first binds more tightly here.

`CC(C)C[C@H](NC(=O)[C@H](C)NC(=O)[C@H](CC1CCCCC1)NC(=O)[C@@H]1CCCN1C(=O)[C@H](CCCCN)NC(=O)CN)C(=O)N[C@H](CCc1ccccc1)C(=O)N[C@@H](CCCNC(=N)N)C(=O)O` [Example 67, H-Glycyl-Lysyl-Prolyl-{(2S)-2-Amino-3-cyclohexylpropanoyl}-Alanyl-Leucyl-{(R)-2-Amino-4-butyryl}-Arginyl-OH] (H-GKP[Cha]AL[d(hPhe)]R-OH) and `N=C(N)NCCC[C@H](NC(=O)C(CCCc1ccccc1)NC(=O)c1cccc(CNC(=O)[C@H](CC2CCCCC2)NC(=O)CCCCCN)c1)C(=O)O` (stereo partly drawn) [Example 144, N-(6-Aminohexanoyl)-{(2S)-2-Amino-3-cyclohexylpropanoyl}-(3-Aminomethylbenzoyl)-{(+)-2-Amino-5-phenylpentanoyl}-Arginyl-OH] are within 1.5-fold of each other in Ki: 5.26 µM for the first, 5.27 µM for the second.

In the case of `CC(C)C[C@H](NC(=O)CNC(=O)[C@H](Cc1ccccc1)N(C)C(=O)CCCCCN)C(=O)NC(CCCc1ccccc1)C(=O)N[C@@H](CCCNC(=N)N)C(=O)O` (single isomer, unassigned) [Example 25, N-(6-Aminohexanoyl)-Phenylalanyl(N-methyl)-Glycyl-Leucyl-{(R/S)-2-Amino-5-phenylpentanoyl}-Arginyl-OH], the Ki is reported as 4.5 µM.
